# Experimental data: the supplement of paper PMC11417369
# Some of the results follow.
# System: PfSIP2 AP2 domain 1 (GST-tagged)
# Test: gcPBM binding intensity (ln(normalized median fluorescence intensity)); higher = stronger DNA binding
# How it was run: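 After 1 h on an Agilent 4 × 180k array of primer-extended double-stranded 36-bp intergenic genomic probes and negative controls, bound GST-tagged P. falciparum DNA-binding domains were detected with Alexa488 anti-GST antibody and scanned at 488 nm. The domains had been expressed in E. coli, and binding took place in 1× PBS with 1% milk, 0.2 mg/ml BSA, 0.5% salmon testes DNA and 0.03% Triton X-100. Binding intensity is the highest Masliner-normalised natural-log median intensity across replicate spots of either probe orientation.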
row,Sequence,gcPBM binding intensity (ln)
1,ATACATATATATGTGTGTACATATGTGTATACATTT [XGTACX_site6544],7.13
2,TTTTATAAATCTAAACGTATCTAAATGAATAATTAA [GTGCAC_negctrl_site44],6.73
3,ATATGTATTAAGTGTACACATATAATGGGTTTGTTA [CACACA_site5682],7.21
4,GAAATAATTGTTAAAGGTACACAATGCATATACAAT [XGTACX_site238],6.97
5,ATAATATATACTAAAAGTACATATTATAATAAATTA [XGTACX_site6749],6.78
6,ACTTCATTTTTTTTATGTACACAGAAGATTTACAAA [XGTACX_site4021],7.86
7,AGGAAAATAGAAAAAGCACACATATATTTTGGAATG [CACACA_site8080],6.92
8,ACATATGTATGAATATCAAAAAATCCCTATTTAATG [GTGCAC_negctrl_site27],6.8
9,AAAATAATAATTAATACATGCATTAATTCTTTTTTT [TGCATGCA_site741],6.5
10,TATATAAATAAATGTGTACACACATTAAAATCAAAC [CACACA_site8733],7.89
11,CATATATTATTTAATAGTACATATAAAAGAAAAAAA [XGTACX_site4643],6.99
12,TATATACATATATATACACACATATATATATTTTAT [CACACA_site3788],7.18
13,ATTTATTTATTTTTTTGTACGAATGTTGCACATATA [XGTACX_site4101],7.43
14,GTTATAACTCAAATATGTACATATTATAAAACATAT [XGTACX_site6693],7.24
15,TATAAAAATAAGCACACACACAAATATATATTTATT [CACACA_site922],6.96
16,TTATAGAACTATATTGCACACATAATATATATATAT [CACACA_site9042],9.04
17,AAAAAAAAAAAAAAAGGTACACAAATACGTCCTGCA [XGTACX_site3354],7.65
18,AATTATCAAAGTCTATACATACATACATACATACAT [GTGCAC_negctrl_site243],7.56
19,TAATTATAATAAAAAGGTACAGAAAAGTTATACTCA [XGTACX_site6111],6.7
20,ATAAAATAAATAAATATAAATATATATATATATATA [TGCATGCA_negctrl_site358],9.26
21,TAAGAAAAAGGCACACGTACATAATTCAAAATAAAT [XGTACX_site982],7.05
22,CCAATGAGGATATATACACACATACATTAAAAAAAT [CACACA_site5090],7.05

row,Sequence,gcPBM binding intensity (ln)
1,ATATATATGTATGTATGTACTTATTTATTTATTTAT [XGTACX_site7740],7.19
2,TTTTTTTTCACACATTGTACTTTTTTATAAAATATA [XGTACX_site4351],7.34
3,ATTTAAATAATATGTACACACATTTAAAAAATTATA [CACACA_site2816],7.13
4,GTCAACTTGTGATAAGTGCATATATATAATAAAATG,8.24
5,CGAAATAAATCTTATGCACACAAATAATTAATTAAA [CACACA_site8491],8.2
6,AAAAAAATATAATATTTGAATAAATATAATAATATG [XGTACX_negctrl_site477],7.01
7,AATATATAGGTATTTACACACAATGTGAGATCTATA [CACACA_site3407],6.8
8,ATTTATGAAAAGTAAAGTACACACAGGAAAAAAAAA [XGTACX_site3564],6.94
9,TAATTTTTCCTTTTTGCACACATTAACGTCGACGAA [CACACA_site4025],7.27
10,CAATTTATTTTTATTACACACTATCCAAATAATTTC [CACACA_site2956],6.99
11,CCATAAAATCATAAGCGTACTTAATATATTTTACTT [XGTACX_site559],6.96
12,TTAAACAATTTAGACATACACACAAAAATAATATTA [CACACA_site385],7.01
13,AACATACGACAATACGCACACATATATGTACATATT [CACACA_site1917],7.23
14,TATATAATAATTTAGAGTACTGATAAAATATTCCAT [XGTACX_site6200],7.03
15,AGCATACATATTTTTTGTACATATATATATATATAT [XGTACX_site8536],8.87
16,TGCTCCTATTATATAGTGCATTTATTTTAATAAACG,8.87
17,TAATTTATAAAAAATTGTACATTAAACATATATATA [XGTACX_site5164],7.01
18,TCTTTTCGTTCATGCTGTACTTAATTGCTCTAATTT [XGTACX_site4816],7.36
19,CCCTGCCTCTCTTTGGTGCGTTGTAACCCTCGAGGA,9.25
20,AAAAAAAAAAAAAGCACACACACATATGTGTATATA [CACACA_site8225],7.16
21,TGTCTGTGCGGGTGTACACATTTCATATTACCCAAT [CACACA_site5593],7.64
22,TAAATTGTATATGAGACTATACTATAAAAGTATGAA [XGTACX_negctrl_site22],6.66
